From the supplement of paper PMC8728848
The list shows a part of the results.

Tests used:
Experiment in all cases: glycan array binding signal (z-score within array); higher = stronger binding
Conditions in all cases: glycan notation: IUPAC condensed, linker removed; mutation: F63H
[1] = biological target: Neu5Ac(a2-3)Gal(b1-4)GlcNAc(b1-3)[Neu5Ac(a2-3)Gal(b1-4)GlcNAc(b1-6)]GalNAc
Method in brief: (§1)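 From the Consortium for Functional Glycomics database, 3228 arrays were curated, keeping only those whose protein sequence was available. Binding is given as a within-array Z-score averaged across arrays sharing a protein sequence and across linkers. Negative Z-scores can be read as non-binding.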

[2] = biological target: Neu5Ac(a2-3)Gal(b1-4)GlcNAc(b1-6)GalNAc
Method in brief: as §1

[3] = biological target: Neu5Ac(a2-3)Gal(b1-4)GlcNAc(b1-6)[Gal(b1-3)]GalNAc
Method in brief: as §1

[4] = biological target: Neu5Ac(a2-3)Gal(b1-4)GlcNAc(b1-6)[Neu5Ac(a2-3)Gal(b1-3)]GalNAc
Method in brief: as §1

[5] = biological target: Neu5Ac(a2-3)Gal(b1-4)GlcNAc6S
Method in brief: as §1

[6] = biological target: Neu5Ac(a2-3)Gal(b1-4)[Fuc(a1-3)]GlcNAc
Method in brief: as §1

[7] = biological target: Neu5Ac(a2-3)Gal(b1-4)[Fuc(a1-3)]GlcNAc(b1-2)Man
Method in brief: as §1

[8] = biological target: Neu5Ac(a2-3)Gal(b1-4)[Fuc(a1-3)]GlcNAc(b1-3)Gal
Method in brief: as §1

[9] = biological target: Neu5Ac(a2-3)Gal(b1-4)[Fuc(a1-3)]GlcNAc(b1-3)Gal(b1-4)GlcNAc
Method in brief: as §1

[10] = biological target: Neu5Ac(a2-3)Gal(b1-4)[Fuc(a1-3)]GlcNAc(b1-3)Gal(b1-4)[Fuc(a1-3)]GlcNAc(b1-3)Gal(b1-4)[Fuc(a1-3)]GlcNAc
Method in brief: as §1

[11] = biological target: Neu5Ac(a2-3)Gal(b1-4)[Fuc(a1-3)]GlcNAc(b1-3)GalNAc
Method in brief: as §1

[12] = biological target: Neu5Ac(a2-3)Gal(b1-4)[Fuc(a1-3)]GlcNAc(b1-6)[Gal(b1-3)]GalNAc
Method in brief: as §1

[13] = biological target: Neu5Ac(a2-3)Gal(b1-4)[Fuc(a1-3)]GlcNAc(b1-6)[Neu5Ac(a2-3)Gal(b1-3)]GalNAc
Method in brief: as §1

[14] = biological target: Neu5Ac(a2-3)Gal(b1-4)[Fuc(a1-3)]GlcNAc6S
Method in brief: as §1

[15] = biological target: Neu5Ac(a2-3)Gal6S(b1-4)GlcNAc
Method in brief: as §1

[16] = biological target: Neu5Ac(a2-3)Gal6S(b1-4)[Fuc(a1-3)]GlcNAc
Method in brief: as §1

[17] = biological target: Neu5Ac(a2-3)GalNAc
Method in brief: as §1

[18] = biological target: Neu5Ac(a2-3)GalNAc(b1-4)GlcNAc
Method in brief: as §1

[19] = biological target: Neu5Ac(a2-3)[GalNAc(b1-4)]Gal(b1-4)Glc
Method in brief: as §1

[20] = biological target: Neu5Ac(a2-3)[GalNAc(b1-4)]Gal(b1-4)GlcNAc
Method in brief: as §1

[21] = biological target: Neu5Ac(a2-3)[GalNAc(b1-4)]Gal(b1-4)GlcNAc(b1-3)GalNAc
Method in brief: as §1

[22] = biological target: Neu5Ac(a2-3)[Neu5Ac(a2-6)]GalNAc
Method in brief: as §1

[23] = biological target: Neu5Ac(a2-6)Gal
Method in brief: as §1

[24] = biological target: Neu5Ac(a2-6)Gal(b1-3)GlcNAc(b1-3)[Gal(b1-4)GlcNAc(b1-6)]Gal(b1-4)Glc
Method in brief: as §1

[25] = biological target: Neu5Ac(a2-6)Gal(b1-4)Glc
Method in brief: as §1

[26] = biological target: Neu5Ac(a2-6)Gal(b1-4)GlcNAc
Method in brief: as §1

[27] = biological target: Neu5Ac(a2-6)Gal(b1-4)GlcNAc(b1-2)Man
Method in brief: as §1

[28] = biological target: Neu5Ac(a2-6)Gal(b1-4)GlcNAc(b1-2)Man(a1-3)Man(b1-4)GlcNAc(b1-4)GlcNAc
Method in brief: as §1

[29] = biological target: Neu5Ac(a2-6)Gal(b1-4)GlcNAc(b1-2)Man(a1-3)[Gal(b1-4)GlcNAc(b1-2)Man(a1-6)]Man(b1-4)GlcNAc(b1-4)GlcNAc
Method in brief: as §1

[30] = biological target: Neu5Ac(a2-6)Gal(b1-4)GlcNAc(b1-2)Man(a1-3)[GlcNAc(b1-2)Man(a1-6)]Man(b1-4)GlcNAc(b1-4)GlcNAc
Method in brief: as §1

[31] = biological target: Neu5Ac(a2-6)Gal(b1-4)GlcNAc(b1-2)Man(a1-3)[GlcNAc(b1-4)][Neu5Ac(a2-6)Gal(b1-4)GlcNAc(b1-2)Man(a1-6)]Man(b1-4)GlcNAc(b1-4)GlcNAc
Method in brief: as §1

[32] = biological target: Neu5Ac(a2-6)Gal(b1-4)GlcNAc(b1-2)Man(a1-3)[Man(a1-6)]Man(b1-4)GlcNAc(b1-4)GlcNAc
Method in brief: as §1

[33] = biological target: Neu5Ac(a2-6)Gal(b1-4)GlcNAc(b1-2)Man(a1-3)[Neu5Ac(a2-3)Gal(b1-4)GlcNAc(b1-2)Man(a1-6)]Man(b1-4)GlcNAc(b1-4)GlcNAc
Method in brief: as §1

[34] = biological target: Neu5Ac(a2-6)Gal(b1-4)GlcNAc(b1-2)Man(a1-3)[Neu5Ac(a2-6)Gal(b1-4)GlcNAc(b1-2)Man(a1-6)]Man(b1-4)GlcNAc(b1-4)GlcNAc
Method in brief: as §1

[35] = biological target: Neu5Ac(a2-6)Gal(b1-4)GlcNAc(b1-2)Man(a1-3)[Neu5Ac(a2-6)Gal(b1-4)GlcNAc(b1-2)Man(a1-6)]Man(b1-4)GlcNAc(b1-4)[Fuc(a1-6)]GlcNAc
Method in brief: as §1

[36] = biological target: Neu5Ac(a2-6)Gal(b1-4)GlcNAc(b1-2)Man(a1-6)Man(b1-4)GlcNAc(b1-4)GlcNAc
Method in brief: as §1

[37] = biological target: Neu5Ac(a2-6)Gal(b1-4)GlcNAc(b1-2)Man(a1-6)[Gal(b1-4)GlcNAc(b1-2)Man(a1-3)]Man(b1-4)GlcNAc(b1-4)GlcNAc
Method in brief: as §1

[38] = biological target: Neu5Ac(a2-6)Gal(b1-4)GlcNAc(b1-2)Man(a1-6)[GlcNAc(b1-2)Man(a1-3)]Man(b1-4)GlcNAc(b1-4)GlcNAc
Method in brief: as §1

[39] = biological target: Neu5Ac(a2-6)Gal(b1-4)GlcNAc(b1-2)Man(a1-6)[Man(a1-3)]Man(b1-4)GlcNAc(b1-4)GlcNAc
Method in brief: as §1

[40] = biological target: Neu5Ac(a2-6)Gal(b1-4)GlcNAc(b1-2)[Neu5Ac(a2-6)Gal(b1-4)GlcNAc(b1-4)]Man(a1-3)[GlcNAc(b1-4)][Neu5Ac(a2-6)Gal(b1-4)GlcNAc(b1-2)[Neu5Ac(a2-6)Gal(b1-4)GlcNAc(b1-6)]Man(a1-6)]Man(b1-4)GlcNAc(b1-4)GlcNAc
Method in brief: as §1

[41] = biological target: Neu5Ac(a2-6)Gal(b1-4)GlcNAc(b1-2)[Neu5Ac(a2-6)Gal(b1-4)GlcNAc(b1-4)]Man(a1-3)[GlcNAc(b1-4)][Neu5Ac(a2-6)Gal(b1-4)GlcNAc(b1-4)Man(a1-6)]Man(b1-4)GlcNAc(b1-4)GlcNAc
Method in brief: as §1

[42] = biological target: Neu5Ac(a2-6)Gal(b1-4)GlcNAc(b1-2)[Neu5Ac(a2-6)Gal(b1-4)GlcNAc(b1-6)]Man(a1-6)[Neu5Ac(a2-6)Gal(b1-4)GlcNAc(b1-2)Man(a1-3)][GlcNAc(b1-4)]Man(b1-4)GlcNAc(b1-4)GlcNAc
Method in brief: as §1

[43] = biological target: Neu5Ac(a2-6)Gal(b1-4)GlcNAc(b1-3)Gal(b1-3)GlcNAc
Method in brief: as §1

[44] = biological target: Neu5Ac(a2-6)Gal(b1-4)GlcNAc(b1-3)Gal(b1-4)GlcNAc
Method in brief: as §1

[45] = biological target: Neu5Ac(a2-6)Gal(b1-4)GlcNAc(b1-3)Gal(b1-4)GlcNAc(b1-2)Man(a1-3)[Neu5Ac(a2-6)Gal(b1-4)GlcNAc(b1-3)Gal(b1-4)GlcNAc(b1-2)Man(a1-6)]GalNAc
Method in brief: as §1

[46] = biological target: Neu5Ac(a2-6)Gal(b1-4)GlcNAc(b1-3)Gal(b1-4)GlcNAc(b1-3)Gal(b1-4)GlcNAc
Method in brief: as §1

B1: AAL (Agrocybe aegerita), Q6WY08 (protein)
chain: MQGVNIYNISAGTSVDLAAPVTTGDIVTFFSSALNLNAGAGNPNNTTLNLFAENGAYLLHIAHRLQENVIIFNSRQPDGPWLVEQRVSDVANQFAGIDGKAMVTVFDHGDKYQVVINEKTVIQYTKQISGLTLSLSYNATEETSIFSTVVEAVTYTGLALEHHHHHH
glycan array binding signal (z-score) [1]: -0.144
glycan array binding signal (z-score) [2]: -0.488
glycan array binding signal (z-score) [3]: 0.404
glycan array binding signal (z-score) [4]: -0.341
glycan array binding signal (z-score) [5]: 0.021
glycan array binding signal (z-score) [6]: -0.11
glycan array binding signal (z-score) [7]: -0.001
glycan array binding signal (z-score) [8]: 0.841
glycan array binding signal (z-score) [9]: -0.467
glycan array binding signal (z-score) [10]: 0.213
glycan array binding signal (z-score) [11]: -0.214
glycan array binding signal (z-score) [12]: -0.178
glycan array binding signal (z-score) [13]: -0.139
glycan array binding signal (z-score) [14]: -0.311
glycan array binding signal (z-score) [15]: -0.264
glycan array binding signal (z-score) [16]: -0.108
glycan array binding signal (z-score) [17]: -0.047
glycan array binding signal (z-score) [18]: -0.23
glycan array binding signal (z-score) [19]: 0.326
glycan array binding signal (z-score) [20]: -0.067
glycan array binding signal (z-score) [21]: 0.14
glycan array binding signal (z-score) [22]: -0.163
glycan array binding signal (z-score) [23]: 0.006
glycan array binding signal (z-score) [24]: -0.255
glycan array binding signal (z-score) [25]: -0.092
glycan array binding signal (z-score) [26]: -0.233
glycan array binding signal (z-score) [27]: 0.043
glycan array binding signal (z-score) [28]: -0.19
glycan array binding signal (z-score) [29]: -0.484
glycan array binding signal (z-score) [30]: -0.73
glycan array binding signal (z-score) [31]: -0.516
glycan array binding signal (z-score) [32]: -0.377
glycan array binding signal (z-score) [33]: -0.144
glycan array binding signal (z-score) [34]: 0.043
glycan array binding signal (z-score) [35]: 0.709
glycan array binding signal (z-score) [36]: -0.262
glycan array binding signal (z-score) [37]: -0.183
glycan array binding signal (z-score) [38]: 0.172
glycan array binding signal (z-score) [39]: -0.239
glycan array binding signal (z-score) [40]: -0.59
glycan array binding signal (z-score) [41]: 0.31
glycan array binding signal (z-score) [42]: -0.298
glycan array binding signal (z-score) [43]: -0.301
glycan array binding signal (z-score) [44]: -0.374
glycan array binding signal (z-score) [45]: -0.58
glycan array binding signal (z-score) [46]: 0.157
